{"source": "the antibiotic and cytotoxicity screens of Wong et al. (2023)", "note": "This is one part of the list."}
{"test_system": "HSkMC (human skeletal muscle cells)", "test": "cytotoxicity call (relative viability < 0.9)", "conditions": "10 µM"}
{"smiles": "C[C@H]1CN([C@@H](C)CO)C(=O)Cc2cc(NC(=O)C3CC3)ccc2O[C@H]1CN(C)C(=O)Nc1ccccc1", "cytotoxicity call": "inactive"}
{"smiles": "C[C@H]1CN([C@@H](C)CO)C(=O)Cc2cc(NC(=O)Cn3cnnn3)ccc2O[C@H]1CN(C)S(=O)(=O)c1ccc(Cl)cc1", "cytotoxicity call": "inactive"}
{"smiles": "O=C(Cn1cc(COc2ccc(-n3cccc3)cc2)nn1)NS(=O)(=O)c1ccccc1C(F)(F)F", "cytotoxicity call": "inactive"}
{"smiles": "C[C@H]1CN([C@@H](C)CO)C(=O)Cc2cc(NC(=O)Nc3cccc4ccccc34)ccc2O[C@H]1CN(C)Cc1ccc(C(=O)Nc2ccccc2N)cc1", "cytotoxicity call": "inactive"}
{"smiles": "CN(C)C(=O)C[C@@H]1CC[C@H]2[C@@H](COC[C@@H](O)CN2S(=O)(=O)c2ccccc2)O1", "cytotoxicity call": "inactive"}
{"smiles": "COC(=O)c1c2oc(c1C(=O)OC)C(=O)N[C@H](Cc1ccccc1)Cn1cc(nn1)[C@H](Cc1ccccc1)NC(=O)N[C@H](CO)CC2", "cytotoxicity call": "inactive"}
{"smiles": "C[C@@H]1CCCCO[C@@H](CN(C)CC2CCCCC2)[C@H](C)CN([C@@H](C)CO)C(=O)c2cc(NC(=O)Nc3ccc(F)cc3)ccc2O1", "cytotoxicity call": "inactive"}
{"smiles": "C[C@H](CO)N1C[C@H](C)[C@@H](CN(C)Cc2ccc3c(c2)OCO3)Oc2ccc(NC(=O)CCN3CCOCC3)cc2CC1=O", "cytotoxicity call": "inactive"}
